Publication PMC4336329 (PLoS ONE, 2015)
Screen size: about 310,000 compounds; about 2,200 (0.71%) showed an effect of 50% or more. Effects have a minus sign here. The list shows a part of the results. Where a SMILES comes first, the peptide text is derived from it. The star is where a group is joined. Cbz = O=C(OCc1ccccc1)*

Biological target: human ether-à-go-go-related gene (hERG) potassium channel (human, UniProt Q12809)
Assay: primary screen, population patch clamp on CHO cells stably expressing hERG

Sequence of human ether-à-go-go-related gene (hERG) potassium channel (Q12809 whole entry, looked up): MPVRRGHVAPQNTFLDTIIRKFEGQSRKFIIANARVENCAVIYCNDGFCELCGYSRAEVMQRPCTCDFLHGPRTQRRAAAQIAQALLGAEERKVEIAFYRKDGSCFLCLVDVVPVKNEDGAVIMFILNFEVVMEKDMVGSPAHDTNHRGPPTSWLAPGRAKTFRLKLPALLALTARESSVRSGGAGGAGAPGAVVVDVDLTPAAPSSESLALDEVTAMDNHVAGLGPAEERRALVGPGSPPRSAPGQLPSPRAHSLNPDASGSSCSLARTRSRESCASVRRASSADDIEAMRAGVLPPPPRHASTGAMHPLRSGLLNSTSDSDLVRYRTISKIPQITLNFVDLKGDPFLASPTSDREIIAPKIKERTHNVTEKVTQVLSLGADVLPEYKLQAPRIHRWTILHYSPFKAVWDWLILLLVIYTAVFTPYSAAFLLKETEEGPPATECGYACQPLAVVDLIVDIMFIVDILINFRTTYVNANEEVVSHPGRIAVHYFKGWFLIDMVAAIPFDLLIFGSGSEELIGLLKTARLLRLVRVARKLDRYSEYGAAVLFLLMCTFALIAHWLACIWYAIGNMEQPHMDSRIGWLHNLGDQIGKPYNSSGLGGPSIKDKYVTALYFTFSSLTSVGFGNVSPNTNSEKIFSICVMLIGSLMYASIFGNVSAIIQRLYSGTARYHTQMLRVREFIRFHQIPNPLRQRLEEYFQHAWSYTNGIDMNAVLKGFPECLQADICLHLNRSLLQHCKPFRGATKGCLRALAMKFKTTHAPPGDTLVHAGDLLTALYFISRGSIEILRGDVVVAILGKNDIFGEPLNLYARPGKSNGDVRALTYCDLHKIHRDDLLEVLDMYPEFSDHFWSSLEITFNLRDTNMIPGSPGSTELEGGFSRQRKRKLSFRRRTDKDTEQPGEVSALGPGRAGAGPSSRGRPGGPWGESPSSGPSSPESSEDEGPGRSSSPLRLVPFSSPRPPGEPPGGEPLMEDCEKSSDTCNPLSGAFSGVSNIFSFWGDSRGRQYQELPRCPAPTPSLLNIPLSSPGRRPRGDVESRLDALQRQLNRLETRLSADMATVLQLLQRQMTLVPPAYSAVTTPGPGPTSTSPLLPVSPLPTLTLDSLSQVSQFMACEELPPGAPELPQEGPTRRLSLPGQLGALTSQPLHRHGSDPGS

Row | SMILES | hERG current change (%, negative = inhibition) at 1uM
1 | COc1cccc(NC(=O)CCN2CCOCC2)c1.Cl | 15.1%
2 | COc1ccc(S(=O)(=O)N2CCCCC2)cc1NC(=O)c1cc(C)on1 | 16.4%
3 | COc1ccc(CC(=O)Nc2ccc(S(=O)(=O)N3CCCCC3)cc2)cc1OC | 2.89%
4 | COc1cc(/C=N/NC(=O)c2cc[n+]([O-])cc2)cc(OC)c1OC | 9.39%
5 | CCOC(=O)c1c(S(=O)(=O)N(C)C2CCCCC2)c(C)n(C)c1C | 6.36%
6 | COc1ccc(C(CNC(=O)COc2cccc(C(F)(F)F)c2)N2CCCC2)cc1 (stereo not shown) | -2.77%
7 | O=C(N/N=C/C=C/c1ccccc1)c1ccccn1 | 7.02%
8 | O=C(NCCN1CCOCC1)c1ccc(Cl)c([N+](=O)[O-])c1 | 18.8%
9 | Cc1ccc(NC(=O)CS(=O)CC(=O)N(CC(=O)NC2CCCC2)c2cccc(C)c2C)cc1 (stereo not shown) | 2.3%
10 | COC(=O)c1cccc(NS(=O)(=O)c2ccc(OC)cc2)c1C | 4.43%
11 | O=C(CSc1n[nH]c(-c2ccccc2)n1)Nc1ncccn1 | 5.09%
12 | O=C(N/N=C/c1ccc(O)cc1O)c1ccc(NC(=O)C2CCCCC2)cc1 | 13.1%
13 | COc1ccc(OC)c(Cc2nnc(CCC(=O)NCc3ccsc3)o2)c1 | -15.1%
14 | COc1cccc(C(=O)OCc2cc(=O)oc3c(C)c(C)ccc23)c1OC | 3.26%
15 | COC(=O)c1ccc(NC(=S)NC(=O)c2cccnc2)cc1 | 16.5%
16 | CCOC(=O)C(Cc1ccc(NC(=O)/C(=C\c2ccccc2)NC(=O)c2ccccc2)cc1)N1C(=O)c2ccccc2C1=O (stereo not shown) | 12.9%
17 | COc1ccc(CN2CCN(Cc3ccccc3OC)CC2)cc1.O=C(O)C(=O)O | 14%
18 | O=C(NCCCN1CCOCC1)c1ccc(CS(=O)(=O)c2ccc(Br)cc2)o1 | 4.6%
19 | CCCC(=O)Nc1nc2nc(C)cc(=O)n2[nH]1 | 1.69%
20 | OCCC1CN(Cc2cnn(-c3ccc(F)cc3)c2)CCN1Cc1ccsc1 (stereo not shown) | -28%
21 | COc1cc(C[C@@H](CO)[C@H](CO)Cc2ccc(O)c(OC)c2)ccc1O | 11%
22 | COc1ccc(CNC(=O)[C@@H](NC(=O)C2CCN(S(=O)(=O)c3ccc(C)cc3)CC2)C(C)C)cc1OC | 11.7%

Row | SMILES | hERG current change (%, negative = inhibition) at 1uM
23 | O=C(Cn1c(SCc2ccccc2)nc2ccccc21)N1CCOCC1 | 9.86%
24 | O=C(CSc1nc2c(cnn2-c2ccccc2)c(=O)[nH]1)N1CCOCC1 | 3.37%
25 | CCC(=O)Nc1cccc(C2=NOC3(C2)C[C@@H](C(N)=O)N(C(=O)c2cc([N+](=O)[O-])cc([N+](=O)[O-])c2)C3)c1 (stereo partly shown) | 14.6%
26 | CCN(CC)S(=O)(=O)c1cc(NC(=O)CN2C(=O)NC(C)(c3ccccc3)C2=O)ccc1C (stereo not shown) | -1.84%
27 | CCN1CCN(C(=O)CN(C)S(=O)(=O)c2ccc(OC)cc2)CC1 | 11.5%
28 | Cc1cc(/N=C/C=C2\N(C)c3ccccc3C2(C)C)n(CCC#N)n1 | 3.4%
29 | C=CCN1CC(=O)N2Cc3[nH]c4ccccc4c3C[C@H]2C1=O | 13.9%
30 | CCOc1ccc2oc(C(=O)OCC(=O)NC(=O)NC)c(C)c2c1 | 11.6%
31 | Cc1cc(-c2nnc(SCC(=O)Nc3cccc(Cl)c3)n2N)n[nH]1 | -40.4%
32 | Cc1cc(Nc2ccc(Cl)cc2)n2ncnc2n1 | 9.08%
33 | OC1(c2ccccc2)C/C(=N\n2cnnc2)C=C1c1ccccc1 (stereo not shown) | 12.3%
34 | COc1cccc(/C=N/Nc2cc(N3CCOCC3)ncn2)c1O | 11.4%
35 | O=C(NCc1ccccc1)c1ccc2c(c1)C(=O)N(Cc1cccnc1)C2=O | 6.22%
36 | O=C(N[C@@H](Cc1ccccc1)C(=O)N[C@@H](Cc1ccccc1)C(=O)O)OCc1ccccc1 (Cbz-Phe-Phe-OH) | 5.51%
37 | Cc1ccc2c(c1)N(C(=O)CCC(=O)NC1CCN(Cc3ccccc3)CC1)CC(C)O2 (stereo not shown) | -35.1%
38 | O=C(Nc1nnc(-c2cccs2)o1)C1CC1 | 9.45%
39 | Cc1cccc(C(=O)OCC(=O)NCC2COc3ccccc3O2)c1 (stereo not shown) | 5.23%
40 | Cc1cc(C)c(S(=O)(=O)c2ccccc2C)c(OCC(C)(C)C)n1 | 6.73%
41 | C=C1CCN([C@@H](CC(C)C)C(=O)NCc2ccccc2)S(=O)(=O)c2ccccc21 | 13%
42 | Cc1ccc(-n2ncc(Cl)c2C(=O)NC2CC2)cc1 | 7.71%
43 | N#C/C(=C\c1c(F)cccc1Cl)c1nn(-c2ccccc2)c(-n2cccc2)c1C#N | 5.64%
